# Reference: the supplement of paper PMC4604168 (melanoma cell lines)
# This is one part of the list. Repeats are few or missing, and single values can be far off.
# System: RPMI7951
# Test: cell count relative to DMSO control; melanoma cells; higher = more viable cells
# Settings: library dose: standard library concentration; 72 h
# 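Also: cells treated in 1,536-well plates, then fixed and DAPI-stained, with nuclei counted from automated high-throughput microscope images.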
row,SMILES,cell count [%]
1,"O=S(=O)(c1ccccc1)N(CC(F)(F)F)c1ccc(C(O)(C(F)(F)F)C(F)(F)F)cc1 + CCCCCCCCCCCC1=C(O)C(=O)C=C(O)C1=O [Embelin] (first compound 7 µM, partner dose 6 µM)",104
2,"N#Cc1c(O)c2c(-c3ccc(-c4ccccc4O)cc3)csc2[nH]c1=O + COc1ccc(-c2ccc3c(N4CCOCC4)nc(N4C[C@@H](C)O[C@@H](C)C4)nc3n2)cc1CO [KU0063794] (first compound 10 µM, partner dose 0.1 µM)",113
3,"COc1ccc2c(c1)CCC1C2CCC2(C)C(NCCCCCCN3C(=O)C=CC3=O)CCC12 (stereo not drawn) + CC(C)CCN1c2nc(Nc3cc(F)c(O)c(F)c3)ncc2N(C)C(=O)C1C [BID1870] (first compound 2 µM, partner dose 1 µM)",42.5
4,"Oc1cc(-c2nc(-c3ccccc3)[nH]c2-c2ccncc2)ccc1Cl + O=C1NC(=O)/C(=C/c2ccc(-c3ccc(F)cc3O)o2)S1 [AS252424] (first compound 1 µM, partner dose 5 µM)",93.7
5,"COc1ccc2c(c1)CCC1C2CCC2(C)C(NCCCCCCN3C(=O)C=CC3=O)CCC12 (stereo not drawn) + c1cc(-c2cnn3cc(-c4ccc(OCCN5CCCCC5)cc4)cnc23)ccn1 [Dorsomorphin] (first compound 2 µM, partner dose 2 µM)",47.7
6,"Cn1cc(/C=C2\C(=O)Nc3cccnc32)c2ccccc21 + O=c1cc(-c2cccc3c2Sc2ccccc2S3)oc(N2CCOCC2)c1 [KU55933] (first compound 2 µM, partner dose 5 µM)",85.2
7,"O=S(=O)(c1ccccc1)N(CC(F)(F)F)c1ccc(C(O)(C(F)(F)F)C(F)(F)F)cc1 + O=c1cc(-c2cccc3c2Sc2ccccc2S3)oc(N2CCOCC2)c1 [KU55933] (first compound 7 µM, partner dose 5 µM)",107
8,"COc1ccc(COc2ccc(Cc3cnc(N)nc3N)cc2OC)cc1 + Oc1cc(-c2nc(-c3ccccc3)[nH]c2-c2ccncc2)ccc1Cl [L779450] (first compound 5 µM, partner dose 1 µM)",70.9
9,"N#Cc1c(O)c2c(-c3ccc(-c4ccccc4O)cc3)csc2[nH]c1=O + c1cc(-c2cnn3cc(-c4ccc(OCCN5CCCCC5)cc4)cnc23)ccn1 [Dorsomorphin] (first compound 10 µM, partner dose 2 µM)",83.4
10,"Oc1nc(-c2ccc(C(F)(F)F)cc2)nc2c1CSCC2 + COc1cc(N2CCC(N3CCN(C)CC3)CC2)ccc1Nc1ncc(Cl)c(Nc2ccccc2S(=O)(=O)C(C)C)n1 [NVP-TAE684] (first compound 10 µM, partner dose 0.4 µM)",67.7
11,"COc1ccc(-c2ccc3c(N4CCOCC4)nc(N4C[C@@H](C)O[C@@H](C)C4)nc3n2)cc1CO + O=S(=O)(c1ccccc1)N(CC(F)(F)F)c1ccc(C(O)(C(F)(F)F)C(F)(F)F)cc1 [T0901317] (first compound 0.1 µM, partner dose 7 µM)",82.5
12,"COc1ccc(COc2ccc(Cc3cnc(N)nc3N)cc2OC)cc1 + CC(C)CCN1c2nc(Nc3cc(F)c(O)c(F)c3)ncc2N(C)C(=O)C1C [BID1870] (first compound 5 µM, partner dose 1 µM)",76.4
13,"c1cc(-c2cnn3cc(-c4ccc(OCCN5CCCCC5)cc4)cnc23)ccn1 [Dorsomorphin] + CC(C)CCN1c2nc(Nc3cc(F)c(O)c(F)c3)ncc2N(C)C(=O)C1C [BID1870] (first compound 2 µM, partner dose 1 µM)",36.4
14,"N#Cc1c(O)c2c(-c3ccc(-c4ccccc4O)cc3)csc2[nH]c1=O + O=c1cc(-c2cccc3c2Sc2ccccc2S3)oc(N2CCOCC2)c1 [KU55933] (first compound 10 µM, partner dose 5 µM)",85.8
15,"N#Cc1c(O)c2c(-c3ccc(-c4ccccc4O)cc3)csc2[nH]c1=O + CCN(CC)CCCCNc1ncc2cc(-c3cc(OC)cc(OC)c3)c(NC(=O)NC(C)(C)C)nc2n1 [PD173074] (first compound 10 µM, partner dose 0.5 µM)",98.2
16,"Oc1cc(-c2nc(-c3ccccc3)[nH]c2-c2ccncc2)ccc1Cl + Oc1nc(-c2ccc(C(F)(F)F)cc2)nc2c1CSCC2 [XAV939] (first compound 1 µM, partner dose 10 µM)",96.5
17,"O=S(=O)(c1ccccc1)N(CC(F)(F)F)c1ccc(C(O)(C(F)(F)F)C(F)(F)F)cc1 + Oc1cc(-c2nc(-c3ccccc3)[nH]c2-c2ccncc2)ccc1Cl [L779450] (first compound 7 µM, partner dose 1 µM)",72
18,"N#Cc1c(O)c2c(-c3ccc(-c4ccccc4O)cc3)csc2[nH]c1=O + Oc1cc(-c2nc(-c3ccccc3)[nH]c2-c2ccncc2)ccc1Cl [L779450] (first compound 10 µM, partner dose 1 µM)",89.2
